# Measurements published in publication PMC3988464 (Journal of immunology (Baltimore, Md. : 1950), 2014).
# Experiments:
# [1] = target: Isolated Link module of human TSG-6 (Link_TSG6) (human, UniProt P98066 in part); experiment: SPR
# [2] = target: Full-length, wild type recombinant human TSG-6 (human, UniProt P98066); experiment: SPR
binder,measurement,setting,value
"CXCL8_S (R68A) mutant (ligand, 72-residue mature form by convention (mature numbering +27 = precursor); monomer/dimer equilibrium) not shown",Kd,[1],203 nM
same,koff,[1],0.0017 s⁻¹
same,kon,[1],8400 M⁻¹ s⁻¹
same,Kd,[2],581 nM
same,koff,[2],0.0018 s⁻¹
same,kon,[2],3100 M⁻¹ s⁻¹
